Measured values as given in the supplement of paper PMC11181314.
The list shows a part of the results. Single values of this set are uncertain.

Test system: U2OS
Experiment: Cell Painting induction (percent of morphological features significantly changed vs DMSO); higher = stronger morphological change
Conditions: 10 µM, 20 h
Method: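 Cell Painting assay in U2OS cells: compounds at 10 µM for 20 h, six dyes, 579 robust CellProfiler features as Z-scores vs DMSO median (MAD). Induction is the % of significantly changed features (active if ≥5%); relative cell count is in % of DMSO. The primary run holds DCM compounds preselected for induction ≥10%; the confirmation repeat defines active compounds (370 of 549). Replicate agreement is low, attributed to precipitation.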

[1] = run: primary screen (compounds selected for induction >=10%)
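Further: stains mark DNA, RNA and nucleoli, ER, actin, Golgi, plasma membrane and mitochondria, read by high-content imaging, with DMSO controls at matching solvent concentration.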

Structure (SMILES)	Cell Painting induction (run: confirmation repeat)	Cell Painting induction [1] [%]
COc1ccc(CNc2ncc(-c3ccc(Br)cc3)n2C)cc1OC	inactive: 4.5%	25.9
COc1ccc(C(=O)Nc2ccc(S(=O)(=O)NC(C)(C)C)cc2)c(OC)c1	active: 15.9%	15.4
CCOc1ccc(NC(=O)CSc2nc3cc(C(=O)NCC4CCCO4)ccc3c(=O)n2CC2CCCO2)cc1 (configuration not stated)	inactive: 2.4%	10.4
COc1ccc(-c2cc(C(F)F)n3ncc(C(=O)N4CCN(c5cccc(Cl)c5)CC4)c3n2)cc1	active: 33.3%	24.5
COc1cccc(NC(=O)CSc2nc3ccccc3nc2N2CCOCC2)c1	active: 26.1%	14.3
O=C(Nc1ccc(C(=O)NCC2CCN(Cc3ccccc3F)CC2)cc1)C1=CSCCO1	active: 46.6%	52.2
COc1ccc(OC)c(-c2oc3ccccc3c(=O)c2O)c1	active: 11.6%	13
COC(=O)c1ccccc1NC(=O)c1cccc(NC(=O)C(C)C)c1	active: 7.6%	18.5
CC1=C(C(=O)OCC2CCCO2)C(c2ccc(C)cc2)C2=C(O)CC(C)(C)CC2=N1 (configuration not stated)	active: 8.3%	12.4
Cc1ccc(-n2nc3c(=O)n(CCCC(=O)N4CCC(C)CC4)nc(C)c3c2C)cc1	active: 14.7%	11.7
CN1CCN(C(=O)CCN2C(=O)/C(=C/c3ccc(Cl)cc3)SC2=S)CC1	inactive: 2.2%	27.3
N#CCCN(C(=O)c1ccc2c(=O)n3c(nc2c1)CCCCC3)c1ccccc1	active: 15.2%	15.2
Cc1ccc(NC(=O)CN(C2=NC3CS(=O)(=O)CC3S2)c2ccccc2)cc1 (configuration not stated)	active: 27.3%	27.3
Cc1cc(NC(=O)c2cccc3c2C(=O)N(C2CCCCC2)C3)ccc1Br	inactive: 0.2%	15.4
COc1ccc(-c2cc3ccccc3n2CC(O)CN2CCCCC2)cc1 (configuration not stated)	active: 39.7%	51.5
Cc1cccc(N2CCN(c3ccc4cc(S(=O)(=O)N5CCCCC5)ccc4n3)CC2C)c1 (configuration not stated)	active: 11.4%	31.1
CC(NC(=O)c1ccc2c(c1)OCO2)C(c1cccs1)N1CCN(c2ccccc2)CC1 (configuration not stated)	active: 6%	23.5
CSc1cccc(NC(=S)N(CCC(C)C)C(C)c2ccncc2)c1 (configuration not stated)	inactive: 1.6%	10.5
Cc1ccccc1-c1nc(S(=O)(=O)c2ccccc2)c(NCCCN2CCOCC2)o1	active: 17.4%	33
CCN(CC)CCNC(=O)c1cn(CC)c2ccc(S(=O)(=O)N(C)C3CCCCC3)cc2c1=O	inactive: 3.6%	16.4
COc1ccc(N(CC(O)Cn2c(C)nc3ccccc32)S(=O)(=O)c2ccc(C)cc2)cc1 (configuration not stated)	active: 6.7%	20.9
COc1ccc(NC(=O)CCCn2c(=O)c3sccc3n(Cc3ccc(C)cc3C)c2=O)cc1	active: 34%	33.3
COc1ccccc1-n1c(CNC(=O)c2ccco2)nnc1SCC(=O)Nc1nccs1	active: 9.7%	15.5
O=S(=O)(c1ccc(Cl)cc1)c1cnc2ccccc2c1N1CCCCC1	inactive: 2.8%	21.6
OC(c1ccccc1)(c1ccccc1)C1CCN(C(=S)NCCc2ccccc2)CC1	active: 13.6%	11.9
CC1CCN(c2ccc3nnc(CCC(=O)N4CCN(c5ccccc5F)CC4)n3n2)CC1	active: 6.6%	13.6

Structure (SMILES)	Cell Painting induction (run: confirmation repeat)	Cell Painting induction [1] [%]
COc1ccccc1-c1c(C)nn2c(N3CCN(c4ccccc4OC)CC3)cc(C)nc12	inactive: 0.7%	22.1
COc1ccccc1NC(=O)CCc1c(C)nc2c(-c3ccc(F)cc3)c(C)nn2c1C	active: 21.1%	15.4
CCN(CC)CCn1c(NCc2cc(OC)ccc2OC)nc2ccccc21	inactive: 4.8%	15.7
CC(=O)Nc1sc2c(c1C(c1cccc(Cl)c1)N1CCN(CCO)CC1)CCCC2 (configuration not stated)	active: 16.2%	23.3
O=S(=O)(NC1CCCCC1N1CCN(c2ccc(F)cc2)CC1)c1ccccc1 (configuration not stated)	active: 18.5%	18.7
CC1=C(C(=O)Nc2cc(C(=O)N3CCN(c4cccc(C)c4)C(C)C3)ccc2C)SCCO1 (configuration not stated)	active: 11.6%	17.6
Cc1nn(C)c(C)c1S(=O)(=O)N(CC(=O)NCCCN1CCC(C)CC1)c1ccc(C(C)C)cc1	active: 30.9%	25.7
O=C(c1noc2c1CCCCC2)N1CCN(C(c2ccccc2)c2ccccc2)CC1	inactive: 0%	15.5
COC(=O)c1cccc(Oc2nc3c(c(=O)n(C)c(=O)n3C)n2Cc2ccc(C)cc2)c1	inactive: 0%	11.1
Cc1c(C(=O)NC2CCCc3ccccc32)oc2ccc(S(=O)(=O)N3CCCC3)cc12 (configuration not stated)	inactive: 4.8%	43.2
CCOc1ccc(N(Cc2cc3cc(C)ccc3nc2O)S(=O)(=O)c2ccccc2)cc1	active: 18.5%	29.5
COc1ccccc1N1CCN(S(=O)(=O)c2ccc(-c3cnc(C4CC4)o3)cc2)CC1	active: 44.7%	34.4
COC(=O)c1ccccc1NC(=O)Cn1c(=O)n(CCC(=O)NC2CCN(Cc3ccccc3)CC2)c(=O)c2ccccc21	inactive: 1.4%	41.3
CC1=C(C(=O)Nc2ccc(Cl)cc2)C(c2cccc(Br)c2)n2nc(C(F)(F)F)nc2N1 (configuration not stated)	active: 11.6%	26.8
O=C1CCCC2=C1C1(CCCC1)NC(Nc1nc3ccccc3o1)=N2	inactive: 0%	21.2
CCCn1c2ccc(F)cc2c2nnc(SCCN3CCOCC3)nc21	active: 5%	19.5
Cc1ccc(Nc2nc3c(S(=O)(=O)c4ccc(C(C)(C)C)cc4)nnn3c3ccccc23)cc1C	inactive: 0%	17.8
CCCN1CCN(CCCNC(=O)c2ccccc2NC(=O)C2=C(C)OCCS2)CC1	inactive: 0.9%	15.4
CCc1ccc(NC(=O)C2CCCN(S(=O)(=O)c3cccs3)C2)cc1 (configuration not stated)	active: 15.4%	15.9
COC(=O)c1ccc(C(=O)OC)c(NC(=S)N2CCN(c3cc(Cl)ccc3C)CC2)c1	active: 10.5%	13.5
CCN(CC)CCCNC(=O)C(C)Sc1nc(-c2ccccc2)cc(C(F)(F)F)n1 (configuration not stated)	active: 31.1%	46.3
CCOC(=O)c1ccc(NC(=S)NC2CC(C)(C)NC(C)(C)C2)cc1	active: 36.3%	49.1
O=C(Cc1c(F)cccc1Cl)Nc1ccc(S(=O)(=O)N2CCCC2)cc1	inactive: 1.7%	17.3
CCN1CCN(C(=O)c2ccc3c(c2)c(C)c(C)n3Cc2ccccc2)CC1	active: 33.5%	26.8
CCCCN(CCCNC(=O)c1ccc(CS(=O)(=O)c2c(Cl)cccc2Cl)o1)Cc1ccccc1	active: 45.4%	45.6
COc1cccc(-c2cc(C(F)(F)F)n3ncc(C(=O)N4CCc5ccccc5C4)c3n2)c1	active: 6.6%	19.2

Structure (SMILES)	Cell Painting induction (run: confirmation repeat)	Cell Painting induction [1] [%]
CSc1cccc(NC(=O)c2cc(S(=O)(=O)N3CCCC3)cn2C)c1	active: 7.4%	17.1
Cc1cccc(NC(=O)c2cc(S(=O)(=O)N3CCc4ccccc43)cn2C)c1	active: 12.6%	10.7
CN(C(=O)c1ccc2c(=O)n3c(nc2c1)CCCCC3)c1ccccc1Cl	active: 15.9%	21.1
CCc1c(C)c(C#N)c2nc3ccccc3n2c1NCCCN(C)C	inactive: 0.3%	20.4
COCCn1c(CN2CCN(C(c3ccccc3)c3ccccc3)CC2)nc2c1c(=O)n(C)c(=O)n2C	inactive: 0.7%	13
COc1ccc(C2/C(=C(\O)OC(C)C)C(C)=Nc3nc4ccccc4n32)cc1 (configuration not stated)	inactive: 3.5%	23.8
Cc1cccc(-n2ncc(C(=O)Nc3ccc(F)c(Cl)c3)c2C2CCNCC2)c1	active: 50.4%	25.6
O=C(NCc1ccccn1)c1cc(-c2ccc(Br)cc2)nc2ccccc12	active: 17.3%	12.6
CCc1ccc(-n2c(CSc3nnnn3-c3ccccc3)nc3ccccc3c2=O)cc1	active: 5.2%	24.2
C=C(C)c1cccc(C(C)(C)NC(=O)N2CCN(C/C=C/c3ccccc3)CC2)c1	active: 5.7%	21.9
CC1CCCN(CCCNC(=O)c2ccc(CS(=O)(=O)c3c(Cl)cccc3Cl)o2)C1 (configuration not stated)	active: 16.6%	26.8
COc1ccc(-n2nc(C(=O)NCCCN3CCCC3=O)c3c4ccccc4n(C)c3c2=O)cc1Cl	inactive: 0.2%	11.6
CCc1ccc(NC(=O)NCCN2CCN(c3ccc(OC)cc3)CC2)cc1	active: 37.3%	49.6
COc1cccc(OC)c1C(=O)Nc1ccc2c(c1)CCCN2S(=O)(=O)c1ccc(C)cc1	active: 29.5%	24
COc1cccc(/C=C2\N=C(c3c(-c4ccccc4)noc3C)OC2=O)c1	inactive: 3.5%	12.1
Cc1ccccc1S(=O)(=O)Cc1ccc(C(=O)NCCN(Cc2ccccc2)C(C)C)o1	inactive: 0.3%	10.7
CCCCNS(=O)(=O)c1ccc2nc(-c3cccnc3)cc(C(=O)NCCCN(CC)CC)c2c1	active: 19.7%	21.2
COc1ccc(-n2nc(C(=O)NCC(=O)N3CCN(c4ccccn4)CC3)c3ccccc3c2=O)cc1Cl	inactive: 0.7%	21.4
COc1ccc(NC(=O)C2CCN(c3ncnc4c3nc3n4CCCCC3)CC2)cc1Cl	active: 29.2%	14.2
Cc1c2cnn(CC(=O)NCCCN3CC(C)CC(C)C3)c(=O)c2c(C)n1Cc1ccc(Cl)cc1 (configuration not stated)	active: 51.5%	54.6
CC(=O)Nc1ccc(NS(=O)(=O)c2cc(-c3cnc(C4CC4)o3)ccc2C)cc1	active: 51.3%	51.8
CC1(C)CC(NC(=O)C(=O)NCCc2ccc(Cl)cc2)CC(C)(C)N1	active: 6.4%	24
COc1cc(-c2nc(S(=O)(=O)c3ccc(Cl)cc3)c(N(C)C)o2)cc(OC)c1OC	inactive: 1%	19.2
O=C(NCCCN1CCCC1)c1ccc2c(c1)N(Cc1ccccc1F)C(=O)c1ccccc1S2(=O)=O	active: 16.9%	39.6
